In PubChem BioAssay AID504333 (National Center for Advancing Translational Sciences (NCATS), 2011):
Hit rate of the full screen: of about 360,000 compounds, about 16,000 (4.4%) were called active. Inconclusive results, whose numbers are uncertain, are shown with a selection of clear calls. Calls come from the whole dose curve; as a rule, active = well fitted inhibition curve with a large enough effect; inconclusive = small, poorly fitted or top-dose-only effect; inactive = no such curve, though single readings can be large or run the other way. Potencies beside an inconclusive call are fits to weak or partial responses and may not hold up.

What follows are molecules tested against Bromodomain adjacent to zinc finger domain protein 2B (Homo sapiens) (UniProt Q9UIF8) (assay: qHTS Assay for Inhibitors of BAZ2B). Settings: AlphaScreen BAZ2B-H3K14Ac peptide displacement; series mostly up to 114 µM.
UniProt Q9UIF8, sequence (Q9UIF8 whole entry, looked up, the tested form may be a part): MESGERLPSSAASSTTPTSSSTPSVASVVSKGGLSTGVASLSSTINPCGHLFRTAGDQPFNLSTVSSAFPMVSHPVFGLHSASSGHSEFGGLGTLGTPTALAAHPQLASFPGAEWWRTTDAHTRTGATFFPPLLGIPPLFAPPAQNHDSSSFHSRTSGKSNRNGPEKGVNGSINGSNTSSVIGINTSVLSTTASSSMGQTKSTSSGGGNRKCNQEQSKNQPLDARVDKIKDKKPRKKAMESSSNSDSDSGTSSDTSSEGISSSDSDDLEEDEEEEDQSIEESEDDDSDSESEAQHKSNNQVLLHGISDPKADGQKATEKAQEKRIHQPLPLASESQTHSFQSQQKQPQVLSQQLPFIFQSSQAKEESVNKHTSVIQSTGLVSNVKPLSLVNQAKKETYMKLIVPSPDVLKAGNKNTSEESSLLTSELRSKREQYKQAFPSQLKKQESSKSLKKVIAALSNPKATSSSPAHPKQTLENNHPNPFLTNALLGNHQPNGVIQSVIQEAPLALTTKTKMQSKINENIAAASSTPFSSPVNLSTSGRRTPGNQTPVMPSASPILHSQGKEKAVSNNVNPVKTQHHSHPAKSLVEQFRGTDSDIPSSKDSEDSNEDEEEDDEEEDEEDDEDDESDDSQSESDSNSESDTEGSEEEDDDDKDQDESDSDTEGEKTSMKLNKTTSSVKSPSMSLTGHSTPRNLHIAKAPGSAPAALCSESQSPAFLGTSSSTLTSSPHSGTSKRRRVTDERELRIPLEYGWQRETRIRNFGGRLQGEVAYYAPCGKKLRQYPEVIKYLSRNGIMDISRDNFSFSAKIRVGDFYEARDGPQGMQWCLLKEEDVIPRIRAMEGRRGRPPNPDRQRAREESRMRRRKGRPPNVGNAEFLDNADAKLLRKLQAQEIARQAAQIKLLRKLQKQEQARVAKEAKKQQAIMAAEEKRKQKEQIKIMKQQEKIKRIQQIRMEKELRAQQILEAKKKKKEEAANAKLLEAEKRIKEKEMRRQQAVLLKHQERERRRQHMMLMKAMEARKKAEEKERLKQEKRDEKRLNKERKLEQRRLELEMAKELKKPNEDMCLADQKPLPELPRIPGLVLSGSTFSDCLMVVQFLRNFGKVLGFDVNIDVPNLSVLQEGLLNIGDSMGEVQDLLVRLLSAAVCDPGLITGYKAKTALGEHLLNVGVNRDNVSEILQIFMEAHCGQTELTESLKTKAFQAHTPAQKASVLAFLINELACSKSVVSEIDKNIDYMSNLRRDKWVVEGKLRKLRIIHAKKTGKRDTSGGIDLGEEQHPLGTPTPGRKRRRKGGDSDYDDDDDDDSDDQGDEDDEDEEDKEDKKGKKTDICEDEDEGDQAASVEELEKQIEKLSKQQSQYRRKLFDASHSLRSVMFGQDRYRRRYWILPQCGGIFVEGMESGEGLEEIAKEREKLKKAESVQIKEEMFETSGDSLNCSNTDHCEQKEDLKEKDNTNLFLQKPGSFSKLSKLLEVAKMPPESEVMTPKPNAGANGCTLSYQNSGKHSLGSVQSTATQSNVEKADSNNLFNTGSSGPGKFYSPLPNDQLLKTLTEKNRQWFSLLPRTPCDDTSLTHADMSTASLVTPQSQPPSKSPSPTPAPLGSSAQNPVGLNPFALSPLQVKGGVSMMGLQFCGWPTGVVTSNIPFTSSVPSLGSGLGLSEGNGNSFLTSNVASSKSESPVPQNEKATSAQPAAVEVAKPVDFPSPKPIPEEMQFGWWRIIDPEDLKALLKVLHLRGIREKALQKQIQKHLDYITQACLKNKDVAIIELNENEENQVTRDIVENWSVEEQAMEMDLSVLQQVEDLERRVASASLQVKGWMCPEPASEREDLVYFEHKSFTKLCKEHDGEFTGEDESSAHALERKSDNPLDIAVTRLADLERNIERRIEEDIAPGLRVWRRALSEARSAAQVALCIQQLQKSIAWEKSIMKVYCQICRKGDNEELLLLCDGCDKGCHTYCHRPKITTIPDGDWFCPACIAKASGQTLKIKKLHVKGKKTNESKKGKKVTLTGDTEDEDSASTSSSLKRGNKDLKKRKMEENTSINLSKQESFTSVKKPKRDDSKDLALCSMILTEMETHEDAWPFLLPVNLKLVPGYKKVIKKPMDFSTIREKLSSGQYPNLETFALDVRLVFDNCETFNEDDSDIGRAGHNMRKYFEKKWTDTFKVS
In short: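 Inhibition is scored as reduced AlphaScreen emission. The BAZ2B/b-H3(5-23)K14Ac complex (50 nM each) in PBS pH 7.4, 0.01% Tween-20 meets compound (up to 110 uM) for 30 min at RT before bead addition.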
Note: nearly all actives have a fitted effect of over 60% in size.
Potency is the fitted concentration of half-maximal effect; tags give direction and shape of the fitted curve.

SMILES | Potency
Cc1ccc(/C([O-])=C(/C(=S)NCc2ccc3c(c2)OCO3)[n+]2ccc(N(C)C)cc2)c(C)c1 | inconclusive: 39.8 µM [inhibitor, partial curve]
O=C(CC(=O)c1cccc([N+](=O)[O-])c1)Nc1ccccc1Cl | inconclusive: 70.8 µM [inhibitor, single point]
COc1ccc(CNC(=O)C[C@H]2C(=O)N(Cc3ccccc3)C[C@@H]2Cc2ccccc2)cc1 | inconclusive: 39.8 µM [inhibitor, single point]
CCN1CCN(Cc2c(O)ccc3c2O/C(=C\c2ccc(C)cc2)C3=O)CC1 | inconclusive: 79.4 µM [inhibitor, single point]
CC(C)(C)c1csc(N/N=C/c2ccc(O)cc2)n1 | inconclusive: 39.8 µM [inhibitor, partial curve]
O=c1c2ccccc2c(C=Nc2cccc(O)c2)c(O)n1-c1ccc2c(c1)OCO2 | inconclusive: 89.1 µM [inhibitor, single point]
COc1ccccc1-n1c(CCC(=O)O)ccc1-c1ccccc1 | inconclusive: 50.1 µM [inhibitor, partial curve]
COc1cc(/C=C2/C(=O)NN(c3ccc(Cl)cc3)C2=O)ccc1OC(=O)c1ccco1 | inconclusive: 44.7 µM [inhibitor, partial curve]
O=C(NCCCN1CCOCC1)c1ccc2c(c1)N(Cc1cccc(Cl)c1)C(=O)c1ccccc1S2 | inconclusive: 63.1 µM [inhibitor, partial curve, poor fit]
Cc1csc(SCC(=O)Nc2cc([N+](=O)[O-])ccc2F)n1 | inactive
CCOc1ccc(/C=C/C2=Cc3c(sc(NC(=O)CSc4n[nH]c(N)n4)c3C#N)C(C)(C)C2)cc1 | active: 39.8 µM
COc1ccc([C@H]2CC(=O)C=C(c3ccc4[nH]ccc4c3)C2)cc1OC | inconclusive: 17.8 µM [inhibitor, partial curve, poor fit]
CCN1CCN(C(=O)C2CCN(Cc3cc(Cl)ccc3O)CC2)CC1 | inconclusive: 70.8 µM [inhibitor, single point]
CCC(=O)N1CCN(c2nc(-c3ccccc3)c3c(c2C#N)CCCC3)CC1 | inconclusive: 39.8 µM [inhibitor, single point]
O=C(NCC(c1ccco1)N1CCCC1)c1ccccc1Sc1ccc(C(F)(F)F)cc1[N+](=O)[O-] (stereo not drawn) | inconclusive: 79.4 µM [inhibitor, single point]
CCOC(=O)c1sc(NC(=O)c2ccoc2C)c(C(N)=O)c1C | inconclusive: 11.2 µM [inhibitor, full curve, poor fit]
Oc1cccc(C=Nc2cccc3ccccc23)c1O | active: 44.7 µM
NC(=O)CC(NSc1ccccc1[N+](=O)[O-])C(=O)O (stereo not drawn) | inconclusive: 56.2 µM [inhibitor, partial curve]
Cc1ccc(Nc2c(-c3ccccn3)nc3cc(C)ccn23)cc1 | active: 15.8 µM
CC/C(=N\Nc1ccc([N+](=O)[O-])cc1[N+](=O)[O-])c1ccc(O)cc1 | active: 11.2 µM
CC(=O)Nc1ccc(S(=O)(=O)N[C@@H](C)C(=O)OCC(=O)NC2CCCC2)cc1 | inactive
O=C(CSc1nc(-c2ccc(F)cc2)[nH]c1-c1ccc(F)cc1)Nc1ccc2c(c1)OCO2 | inconclusive: 89.1 µM [inhibitor, single point]

SMILES | Potency
O=c1ccccn1Cc1c(F)cccc1Cl | inconclusive: 89.1 µM [inhibitor, single point]
O=[N+]([O-])c1ccccc1-c1cc(-c2ccccc2O)n[nH]1 | inconclusive: 79.4 µM [inhibitor, single point]
COc1cccc(C(=O)Nc2nnc(S(=O)(=O)N3CCCC3)s2)c1 | inconclusive: 79.4 µM [inhibitor, single point]
COc1cccc(C(c2nnnn2Cc2ccco2)N2CCN(Cc3ccccc3)CC2)c1OC (stereo not drawn) | active: 50.1 µM
Cc1cccc(NC2SC(=O)NC2=O)c1 (stereo not drawn) | inconclusive: 79.4 µM [inhibitor, single point]
COc1ccccc1-c1cc(C(=O)NN)[nH]n1 | inconclusive: 89.1 µM [inhibitor, single point]
COC(=O)C1=C(C(=O)OC)[C@@H]2N(C)c3ccccc3[C@@]23C[C@@H](C(=O)OC)N(C(=O)C2CCC2)C3=N1 | inconclusive: 39.8 µM [inhibitor, partial curve]
COc1ccc(OCC(=O)N/N=C(\C)c2ccc(OC)cc2)cc1 | inactive
COC(=O)c1ccc(Oc2cc(C)nc(SC)n2)cc1 | inactive
O=C(Nc1ccc(Cl)cn1)C1CCCN1S(=O)(=O)c1ccccc1 (stereo not drawn) | inactive
CSc1ccc(-c2nc3cccc(C)n3c2Nc2ccc(Cl)cc2)cc1 | inactive
NNC(=O)COc1ccc2oc3c(c2c1)CCCC3 | inconclusive: 79.4 µM [inhibitor, single point]
Brc1ccc2nc(-c3cccs3)c(NCC3CCCO3)n2c1 (stereo not drawn) | active: 50.1 µM
Cc1ccc(C(=O)Oc2ccc(-c3nccc(-c4ccccn4)n3)cc2)cc1 | inactive
COc1cccc(CNC(=O)CN2C(=O)CSc3ccc(S(=O)(=O)N4CCCCC4)cc32)c1 | inactive
COc1ccc([C@@H]2[C@@H]3C(=O)N(C(C)(C)C)C(=O)[C@@H]3[C@]3(C)C(=O)N(c4cccc(F)c4)C(=O)N23)cc1 | inconclusive: 89.1 µM [inhibitor, single point]
CSc1nc(O)c(C(c2ccc(O)cc2)c2c(O)nc(SC)[nH]c2=O)c(=O)[nH]1 | inconclusive: 89.1 µM [inhibitor, single point]
Cc1cc2c(cc1S(=O)(=O)N1CCOCC1)NC(=O)CO2 | inactive
O=C(NCN1CCc2ccccc2C1)c1cnccn1 | inactive
CCn1c(=O)cc(OCC(=O)N(C)c2cc(Cl)ccc2C)c2ccccc21 | inconclusive: 100 µM [inhibitor, partial curve]
CC(C)Cn1c(N)c(C(=O)COC(=O)c2cc(C3CC3)nc3ccccc23)c(=O)n(C)c1=O | inconclusive: 89.1 µM [inhibitor, single point]
